target: cathepsin B (Mus musculus, UniProt P10605)
Protocol: Cathepsin B activity in total cell lysates was determined using an InnoZyme ™ cathepsin B activity assay kit (EMD Milipore) and performed according to the manufacturer’s instruction. […] Cellular cathepsin B activity with and without drugs was tested by pre-treating cells with drugs for 1 hour, followed by lysing cells and testing cathepsin B activity with a fluorescently labeled substrate. […] . Fluorescence intensity indicating cathepsin B activity was measured at an excitation wavelength of 370 nm and emission wavelength of 450 nm (Molecular Devices, Spectra Max 384 PLUS).
the activity of host cathepsin B. FRET assay showing the activity of cathepsin B
µM. RAW264.7 cells were treated with drugs for 1 hour prior to lysis and
determination of cathepsin B activity (a), or untreated RAW264 cells were lysed, the
lysate was treated with drugs, and then the activity of cathepsin B was assessed […]

Compound | cathepsin B activity in protein lysate from cells not exposed to drugs | cathepsin B enzymatic activity in cells pre-treated with drug
CCN(CC)CCCC(C)Nc1ccnc2cc(Cl)ccc12 (centres unmarked) [CQ, Chloroquine] | weaker inhibitors | weaker inhibitors
CCNCCCC(C)Nc1ccnc2cc(Cl)ccc12 (centres unmarked) [DECQ, Desethyl-Chloroquine] | weaker inhibitors | weaker inhibitors
CCN(CC)Cc1cc(Nc2ccnc3cc(Cl)ccc23)ccc1O [AQ, Amodiaquine] | inhibited cathepsin B activity | lost cathepsin B enzymatic activity in a dose dependent manner
CCNCc1cc(Nc2ccnc3cc(Cl)ccc23)ccc1O [DEAQ, Desethyl-Amodiaquine] | inhibited cathepsin B activity | lost cathepsin B enzymatic activity in a dose dependent manner

Source: PMC4550849 (Scientific Reports, 2015)
